Source: PubChem BioAssay AID1345082 (National Center for Advancing Translational Sciences (NCATS), 2018)
Hit rate of the full screen: of about 94,000 compounds, about 4,000 (4.3%) were called active. This list was built around the results that the source calls inconclusive (neither active nor inactive); the mix of calls is not that of the screen. The call rests on the fitted dose curve; in most records, active means well fitted inhibition curve with a large enough effect; inconclusive means small, poorly fitted or top-dose-only effect; inactive means no such curve, though single readings can be large or run the other way. Potencies beside an inconclusive call are fits to weak or partial responses and may not hold up.
On the % scale 0 is the no-effect control and ±100 the full control effect; potency means the concentration at half of the fitted maximal effect; tags describe the fitted curve by direction and shape.

Experiment: Cytotoxic Profiling in NIH 3T3 Cell Line of Diverse Libraries Using Quantitative High-Throughput Screening; further: nearly all actives have a fitted effect of over 55% in size
Settings: NIH 3T3 viability, CellTiter-Glo ATP luminescence, 48-72 h; activity change, negative = cytotoxicity: at 96.7 µM (top of the series) unless noted; series mostly up to 96.7 µM
How it was run: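 Cytotoxicity is measured as loss of cellular ATP: NIH 3T3 cells (400/well) are exposed to compound for 48 or 72 hr at 37 °C, then CellTiter-Glo luminescence is imaged after 10 min at room temperature.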
In the case of `O=C(c1cc(F)ccc1F)N1CCCC(Cc2noc(-c3ccccc3)n2)C1` (centres undefined), the Potency is reported as inconclusive: 44.7 µM [inhibitor, partial curve, poor fit]. With `CCc1ccc(N2CC(c3noc(-c4ccc5ncccc5c4)n3)CC2=O)cc1` (centres undefined) the Potency was inconclusive: 50.1 µM [inhibitor, partial curve, poor fit]. For `O[C@H]1[C@H](NCC2CCCCC2)[C@H]2CO[C@H](O2)[C@@H]1N1CCC(Cc2ccccc2)CC1`, the Potency was active: 31.6 µM. For `CCCN(Cc1nccn1C)C(=O)CC1C(=O)NCCN1CC1CCCCC1` (centres undefined), the “activity change, negative = cytotoxicity” value was inactive: -7.23%. For `Cc1ccc(C(=O)N2CCCN(c3ccnc4ccnn34)CC2)cc1`, the “activity change, negative = cytotoxicity” value was inactive: -22.6%. With `CC(C)Cn1c(=O)c(C(=O)NCc2ccccc2F)nc2cccnc21` the Potency was inconclusive: 50.1 µM [inhibitor, partial curve, poor fit]. In the case of `COCCOC1CN(C2CCN(C(=O)COc3ccc(F)cc3)CC2)C12CCCCC2` (centres undefined), the “activity change, negative = cytotoxicity” value is reported as inactive: -22.4%. For `COCCCn1c(=O)c(C(=O)NCc2ccc3c(c2)OCO3)nc2cccnc21`, the Potency was inconclusive: 50.1 µM [inhibitor, partial curve, poor fit]. For `O=[S+]([O-])(NC1CCN(c2ccc3nnc(C4CC4)n3n2)CC1)c1ccccc1`, the Potency was inconclusive: 44.7 µM [inhibitor, partial curve, poor fit]. For `COc1ccc(Nc2cnc3ccc(-c4ccc(F)cc4)nn23)cn1`, the Potency was active: 35.5 µM. For `CC1(c2ccccc2)N(Cc2ccccc2)C(=O)OC12CCN(c1cccnc1)CC2` (centres undefined), the Potency was active: 89.1 µM. For `Cn1nc(C2CCCC2)cc1NC(=O)c1ccccc1F`, the Potency was inconclusive: 112 µM [inhibitor, single point]. In the case of `COCCNC(=O)c1cc(-c2cccc(OC)c2)nc2c1cnn2C`, the Potency is reported as inconclusive: 89.1 µM [inhibitor, partial curve]. For `Cc1nc(C)c(C(=O)N2CCC(Oc3ccccc3-c3nc(-c4ccccc4)no3)C2)s1` (centres undefined), the Potency was active: 39.8 µM. For `Cn1ncc2c(C(=O)NCc3cccs3)cc(-c3ccc(Cl)cc3)nc21`, the Potency was inconclusive: 44.7 µM [inhibitor, partial curve, poor fit]. For `O=C1Cc2c(-c3ccccc3)n[nH]c2CN1CCOc1ccccc1`, the Potency was inconclusive: 79.4 µM [inhibitor, partial curve, poor fit]. In the case of `Cc1cc(=O)n(CC(=O)Nc2cc(Cl)ccc2C)c(N(C)Cc2ccccc2)n1`, the Potency is reported as inconclusive: 39.8 µM [inhibitor, partial curve]. In the case of `O=C(NCCCc1ccccc1)C1CCCCN1Cc1ccc(-c2ccsc2)cc1` (centres undefined), the Potency is reported as active: 35.5 µM. With `Cc1ccc(OCCC2CCN(C(=O)CCn3nc(C)cc3C)C2)cc1` (centres undefined) the Potency was inconclusive: 35.5 µM [inhibitor, partial curve]. With `CCC1(N2CCN(S(=O)(=O)c3ccc(F)c(C)c3)CC2)CCN(C(=O)NC)C1` (centres undefined) the Potency was inconclusive: 50.1 µM [inhibitor, single point]. For `CN(C)C(=O)c1nc(-c2cccc(C(F)(F)F)c2)c2ccccn12`, the Potency was inconclusive: 89.1 µM [inhibitor, partial curve]. In the case of `O=C(NCCc1ccccc1)C1CCCN(Cc2cccc(-c3ccc(F)cc3F)c2)C1` (centres undefined), the Potency is reported as inconclusive: 50.1 µM [inhibitor, partial curve, poor fit]. With `O=C(NC1CCCC1)c1cc(-c2cccc(C(F)(F)F)c2)c2cccn2n1` the Potency was inconclusive: 44.7 µM [inhibitor, partial curve, poor fit]. With `O=C(c1cccs1)N1CC(Oc2ccc(-c3nc(-c4ccccc4)no3)cc2)C1` the Potency was inconclusive: 35.5 µM [inhibitor, partial curve, poor fit]. In the case of `CC(C)(N)C(=O)N1CCN(c2nc(-c3ccccc3)nc3c2CCC3)CC1`, the Potency is reported as inconclusive: 50.1 µM [inhibitor, partial curve, poor fit]. With `O=C(CNC(=O)c1ccc(-c2cnc3ccccc3c2)cc1)NCc1cccc(C(F)(F)F)c1` the Potency was inconclusive: 56.2 µM [inhibitor, partial curve, poor fit]. With `Cc1cn2nc(C(=O)Nc3ccc(F)c(C)c3)cc2c(N2CCSCC2)n1` the Potency was inconclusive: 28.2 µM [inhibitor, full curve]. With `COc1ccc(-c2cc(N3CCC(NC(=O)Cc4ccccc4F)CC3)n[nH]2)cc1` the Potency was inconclusive: 44.7 µM [inhibitor, partial curve, poor fit]. For `CN(CCO)C[C@@H]1CN(C(=O)c2ccc3c(c2)CCC3)C[C@@H]1CO`, the “activity change, negative = cytotoxicity” value was inactive: 3.85%. For `FC(F)(F)c1ccc(N2C3CCC2CN(Cc2cccc(-c4cccnc4)c2)C3)cc1`, the “activity change, negative = cytotoxicity” value was inactive: -20.5%. In the case of `Cc1noc(-c2cn(C3CCN(C(=O)c4ccc5c(c4)OCO5)CC3)nn2)n1`, the “activity change, negative = cytotoxicity” value is reported as inactive: -20.6%. For `O=C(N1CCOc2ccc(CN3CCc4ccccc4C3)cc2C1)C1(c2ccccc2)CC1`, the Potency was inconclusive: 50.1 µM [inhibitor, partial curve, poor fit]. With `c1ccc(-c2cc3c(cn2)NCCN(Cc2ccsc2)C3)cc1` the Potency was inconclusive: 112 µM [inhibitor, partial curve, poor fit]. In the case of `COc1ccc(-c2nc(-c3ccccc3)nc3c2CN(C(=O)c2cccc(OC)c2)CC3)cc1`, the Potency is reported as inconclusive: 25.1 µM [inhibitor, full curve]. In the case of `O=C(C[C@@H]1CCNC[C@@H]1Cc1cc(-c2ccccc2)on1)N1CCCCC1`, the Potency is reported as inconclusive: 112 µM [inhibitor, partial curve, poor fit]. In the case of `CCC1(C2CCN(C(=O)CCCc3ccccc3)CC2)NC(=O)N(CCc2scnc2C)C1=O` (centres undefined), the “activity change, negative = cytotoxicity” value is reported as inactive: -5.72%. In the case of `O=C(N[C@@H]1CN(C(=O)NCc2ccccc2)CCC[C@H]1O)c1ccc(OCc2ccccc2)cc1`, the Potency is reported as inconclusive: 56.2 µM [inhibitor, partial curve, poor fit]. With `O=C(CN1C(=O)C(c2ccccc2)=NC12CCCC2)N1CCN(c2ccccc2)CC1` the Potency was inconclusive: 28.2 µM [inhibitor, partial curve, poor fit]. With `COc1cccc(C(=O)N2CCC3(CC2)CC(N(C)Cc2ccccc2)CCO3)c1` (centres undefined) the “outcome” value was “inactive”. In the case of `N#Cc1ccc([S+](=O)([O-])N2CCC3(CC2)OCCN(CC2CCOCC2)C3=O)cc1`, the Potency is reported as inconclusive: 89.1 µM [inhibitor, single point]. With `O=C(Cc1c[nH]c2ncc(-c3cn[nH]c3)cc12)NCc1cccnc1` the Potency was inconclusive: 50.1 µM [inhibitor, partial curve, poor fit]. With `Cc1ccc2c(C)c(C(=O)N(C)CCOc3ccccc3)oc2c1C` the “activity change, negative = cytotoxicity” value was inactive: -16.7%. With `N#Cc1ccc(CN2CCCC3(CN[S+](=O)([O-])c4ccccc4N3)C2)cc1` (centres undefined) the Potency was inconclusive: 70.8 µM [inhibitor, single point]. With `CCCn1ccc2oc(C)c(C(=O)NCc3ccccc3Br)c2c1=O` the Potency was inconclusive: 50.1 µM [inhibitor, partial curve, poor fit]. In the case of `O=C(Nc1ccccc1)c1nc2c(o1)CCN(Cc1ccc(O)cc1)CC2`, the “activity change, negative = cytotoxicity” value is reported as inactive: -29.6% [at 138 µM]. In the case of `Cc1ccc(NC(=O)N2C[C@@H](Oc3cccnc3)C[C@H]2C(=O)N2CCCC2)cc1C`, the Potency is reported as inconclusive: 70.8 µM [inhibitor, partial curve, poor fit]. With `COCc1cn2c(=O)n(C)cc(-c3cccc(F)c3)c2n1` the Potency was inconclusive: 126 µM [inhibitor, single point]. In the case of `COc1ccc(Nc2cnc3ccc(-c4ccc(F)cc4)nn23)cc1OC`, the Potency is reported as inconclusive: 44.7 µM [inhibitor, partial curve, poor fit]. In the case of `O=C(NCc1ccc(F)cc1)[C@@H]1COCC(=O)N1Cc1ccc(F)cc1`, the “activity change, negative = cytotoxicity” value is reported as inactive: -27.9%. With `O=C(c1ccccc1)N1CCCC1C(=O)N1CCCC1c1nc2ccncc2[nH]1` (centres undefined) the “activity change, negative = cytotoxicity” value was inactive: -27.2%. With `Cc1cn2nnc(C(=O)N3CCC(C(=O)Nc4ccc(F)c(F)c4)CC3)c2c(=O)[nH]1` the “outcome” value was “inactive”. With `Cc1cnc(CCNC(=O)c2nccn2C)n1Cc1ccccc1` the “activity change, negative = cytotoxicity” value was inactive: -31.8%. For `Cc1ccc([S+](=O)([O-])N2CCCC(N3C(=O)c4c(c(C)nn4-c4ccccc4)C3C(C)C)C2)cc1` (centres undefined), the “activity change, negative = cytotoxicity” value was inactive: -18.5%. With `COc1ccc(CCC(=O)N2c3ccccc3CC2c2nc(C3CC3)no2)cc1` (centres undefined) the Potency was inconclusive: 44.7 µM [inhibitor, partial curve, poor fit]. In the case of `Cc1ccc(-c2ccccc2CN2CCC(C(=O)N3CCN(Cc4ccccc4)CC3)CC2)cc1Cl`, the Potency is reported as inconclusive: 50.1 µM [inhibitor, partial curve, poor fit]. In the case of `COc1cccc(-c2cc(C(=O)NCc3ccc4c(c3)OCO4)c3cnn(C)c3n2)c1`, the Potency is reported as inconclusive: 31.6 µM [inhibitor, partial curve]. In the case of `Cc1ncsc1C(=O)N1CCC2(CC1)OC(=O)N(Cc1cccnc1)C2(C)c1ccccc1` (centres undefined), the Potency is reported as active: 22.4 µM. For `O=C(c1ccccc1)N1CC2(CCCN2CC2CC2)Cc2ccccc21` (centres undefined), the “activity change, negative = cytotoxicity” value was inactive: -26.6%. For `N#Cc1ccc(S(=O)(=O)N2CCCOCCNC(=O)[C@@H]3CCCC[C@@H]32)cc1`, the “activity change, negative = cytotoxicity” value was inactive: -11.2%. With `COc1ccccc1Cn1ccn2nc3c(c2c1=O)CCCC3` the Potency was inconclusive: 50.1 µM [inhibitor, partial curve, poor fit]. In the case of `COc1cc(OC)c(OC)cc1CN1CCc2nc(N(C)C)[nH]c(=O)c2CC1`, the “activity change, negative = cytotoxicity” value is reported as inactive: -0.196%. With `CCOc1ccccc1C(=O)NC1CCN(C(=O)c2cc3c(=O)[nH]c(C)cn3n2)CC1` the Potency was inconclusive: 70.8 µM [inhibitor, single point]. For `CN(C)C(=O)N1CCC(C(=O)N2CCC(N3Cc4ccccc4C3=O)CC2)CC1`, the Potency was inconclusive: 70.8 µM [inhibitor, partial curve, poor fit]. For `O=C(c1cc(Cl)ccc1F)N1CCC(OC2CCN(Cc3ccccc3)CC2)CC1`, the Potency was inconclusive: 35.5 µM [inhibitor, partial curve, poor fit].
